Measurements published in the RNAGym collection of RNA variant scans (doi:10.1093/nar/gkz1192).
The source gives no read counts; variants with many changes may rest on few reads.

B1: CPEB3 Ribozyme (parent)
chain: UAACAGGGGGCCACAGCAGAAGCGUUCACGUCGCAGCCCCUGUCAGAUUCUGGUGAAUCUGCGAAUUCUGCUGUAUAUCUC

Variants of: B1
Experiment: self-cleavage, relative activity (ratio to wild type); higher = more cleavage; in vitro, sequencing
Outline: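 For each CPEB3 ribozyme variant, relative activity is its cleaved/total read fraction divided by the unmutated ribozyme's. Barcoded error-prone PCR libraries were transcribed by T7 RNA polymerase (5 hours, 37°C) and held in DNase I for 15 min before an EDTA stop, with cleavage occurring throughout. Template-switching reverse transcription and Illumina sequencing were used to read the RNAs. A 5-read minimum applied, and results are the mean of three batches.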

Row | Variant | self-cleavage
1 | U26C C40U U80A | 0.18
2 | U26C C44A U69C | 0.28
3 | U26C C50A U67C | 0.36
4 | U26C C59A A64G | 0.08
5 | U26C C62A U69G | 0.08
6 | U26C C62U U67C U72A | 0.33
7 | U26C C62U U76A | 0.14
8 | U26C C71G U76C | 0.13
9 | U26C G30A U80G | 0.06
10 | U26C G30U U31C U60A | 0.18
11 | U26C G30U U54C U67C U80C | 0.09
12 | U26C G33A A47G | 0.26
13 | U26C G33C A47G | 0.15
14 | U26C G33C A47G A77U | 0.16
15 | U26C G33U A35G U54C C71U | 0.11
16 | U26C G33U G46U U72C | 0.12
17 | U26C G33U U41C | 0.41
18 | U26C G33U U80C | 0.12
19 | U26C G36A A56G U60C | 0.08
20 | U26C G36A U54C | 0.16
21 | U26C G36A U54C C81G | 0.18
22 | U26C G36C U80A | 0.48
23 | U26C G42A A47G C79G | 0.07
24 | U26C G42A U58C | 0.17

Row | Variant | self-cleavage
25 | U26C G52A U54C | 0.49
26 | U26C G53A U54C C71A U72C | 0.13
27 | U26C G53A U74A | 0.83
28 | U26C G55C A64G | 0.34
29 | U26C G55U U72A U80A | 0.15
30 | U26C G63A U67C U74A U78C | 0.11
31 | U26C U31A A35G U41A U54G | 0.26
32 | U26C U31A A35G U43C C44U C71A U72G | 0.06
33 | U26C U31A A56G | 0.17
34 | U26C U31A A56G A64C | 0
35 | U26C U31A A64U U80A | 0.15
36 | U26C U31A A77U U78C | 0.2
37 | U26C U31A U41C A77U U80C | 0.24
38 | U26C U31A U43C | 0.32
39 | U26C U31A U43C A64G | 0.14
40 | U26C U31A U49C A56G | 0.14
41 | U26C U31A U74A | 0.15
42 | U26C U31C A64U U78C | 0.08
43 | U26C U31C U41A A56G | 0.19
44 | U26C U31C U41C A65G | 0.09
45 | U26C U31C U48C A57G U74C | 0.51
46 | U26C U31C U66C A75G | 0.13
47 | U26C U31C U67C | 0.16
48 | U26C U31G A47G A64G U78C | 0.26

Row | Variant | self-cleavage
49 | U26C U31G U43C U74C | 0.4
50 | U26C U41A A45U A64G | 0.44
51 | U26C U41A A56U | 0.15
52 | U26C U41A A65G U67C C81U | 0.25
53 | U26C U41A U48A | 0.32
54 | U26C U41A U51A | 0.41
55 | U26C U41A U54A | 0.19
56 | U26C U41A U66C C71G U80G | 0.07
57 | U26C U41A U67A U76A | 0.13
58 | U26C U41A U72A U78A | 0.08
59 | U26C U41C A45U U67C | 0.16
60 | U26C U41C A64G A77G | 0.43
61 | U26C U41C A65G | 0.69
62 | U26C U41C A75U | 0.4
63 | U26C U41C U43A U54C U66A | 0.06
64 | U26C U41C U60C | 0.18
65 | U26C U41C U60C A77G | 0.22
66 | U26C U41G A45G A47G U51A U78C | 0.07
67 | U26C U43A A45G U69C | 0.06
68 | U26C U43A A56U U60G | 0.08
69 | U26C U43A U49C U58C A64U U72C U74C | 0.16
70 | U26C U43A U51A C59U A64G | 0.13
71 | U26C U43A U60C | 0.21
72 | U26C U43C A45G U72C A77U U80C | 0.89

Row | Variant | self-cleavage
73 | U26C U43C A57G U72C | 0.55
74 | U26C U43C G63A | 0.65
75 | U26C U43C U48C | 0.14
76 | U26C U43C U76C U78C | 0.63
77 | U26C U48A A75G A77G | 0.1
78 | U26C U49A U58A | 0.11
79 | U26C U49C A77G | 0.21
80 | U26C U49C U66C | 0.41
81 | U26C U51A A57G | 0.16
82 | U26C U51A A64G U80C | 0.22
83 | U26C U51A G73U U76C U80A | 0.97
84 | U26C U51A U58C | 0.19
85 | U26C U51A U72A | 0.1
86 | U26C U51A U78A U80C | 0.51
87 | U26C U51A U80A | 0.46
88 | U26C U51C A77C | 0.42
89 | U26C U51C G52U A56G | 0.3
90 | U26C U54A U80C | 0.53
91 | U26C U54C U72A | 0.19
92 | U26C U60C U76C | 0.16
93 | U26C U60G A64G U69A | 0.09
94 | U26C U66G A75G | 0.07
95 | U26C U67C U72A | 0.1
96 | U26C U67C U72C A77G | 0.11

Row | Variant | self-cleavage
97 | U26C U67C U76C | 0.33
98 | U26C U72A A75U | 0.57
99 | U26C U72C A77U | 0.62
100 | U26G A28G A35U U60C | 0.14
101 | U26G A28G G33C U48C U60C C71A | 0.05
102 | U26G A28G U41A C71A G73A | 0.05
103 | U26G A35G U51A | 0.43
104 | U26G A47C A57G | 0.14
105 | U26G A47U U54C U60C U78C | 0.08
106 | U26G C32G U51A A77G | 0.06
107 | U26G C38U U49A U54C | 0.06
108 | U26G G30A C39U | 0.43
109 | U26G G33A A75G | 0.07
110 | U26G G33C C40U G55C A57G U58C | 0.07
111 | U26G U31C G53A A57G | 0.06
112 | U26G U31C G53A U80C | 0.1
113 | U26G U41C C44G A45G A47G U69A U78C | 0
114 | U26G U41C C62U A64G A65G | 0.07
115 | U26G U43A A47G | 0.05
116 | U26G U43A U51C A56G U69C U72C U76A | 0.04
117 | U26G U48C U51A | 0.42
118 | U26G U49C C50A U78C | 0.26
119 | U26G U49C G55A U78C | 0.04
120 | U26G U51C A64G | 0.17

Row | Variant | self-cleavage
121 | U26G U54A A77U U78C | 0.25
122 | U26G U58C U60G | 0.11
123 | U26G U60C U80C | 0.34
124 | U26G U78C U80C | 0.37
125 | C27A A28G A64G U67C | 0.11
126 | C27A A35G A56U U66C U78A | 0.07
127 | C27A A45U A64G | 0.13
128 | C27A A45U U48C | 0.18
129 | C27A C40U U60A U69A | 0.11
130 | C27A G53A U54G A65G U69A A77G | 0.05
131 | C27A G53U A56U A57G | 0.06
132 | C27A U31C C37G A65G C68U | 0.12
133 | C27A U31C U80C | 0.21
134 | C27A U41C C68A | 0.19
135 | C27A U49C U78A | 0.11
136 | C27G A45G A64U | 0.1
137 | C27G A47G U60A C71G | 0.12
138 | C27G U41A U66C | 0.04
139 | C27G U48C U67A | 0.08
140 | C27U A28G U43A U48C U49C | 0.24
141 | C27U A28U C29G U48C U69C U74A | 0.08
142 | C27U A35C U66C | 0.17
143 | C27U A35U U48A U66C | 0.16
144 | C27U A56G U60C U69A U74C A75G | 0.11

Row | Variant | self-cleavage
145 | C27U A57G U72C C79U | 0.47
146 | C27U A57G U80C | 0.41
147 | C27U A64U U72C | 0.1
148 | C27U C32A C50U U51G A65U | 0.04
149 | C27U C40U A65G | 0.08
150 | C27U G33A A35U G53U U69A A77U | 0.06
151 | C27U G33A U51G A57G U58C | 0.21
152 | C27U G33A U54A A64U U66C U78C | 0.06
153 | C27U G55U U80A | 0.17
154 | C27U U31A G33A A35G U60C | 0.17
155 | C27U U41A U69C A77G | 0.13
156 | C27U U41C G42U A56G | 0.2
157 | C27U U43C A65G U78A | 0.18
158 | C27U U43C U60A U69C | 0.12
159 | C27U U49C U69A | 0.13
160 | C27U U54C U72C | 0.24
161 | C27U U58C U72A U80A | 0.31
162 | C27U U60C A77U U78C | 0.07
163 | A28C A35G A47G | 0.83
164 | A28C A45G U74C | 0.6
165 | A28C A56G U69A U72C | 0.1
166 | A28C C29G C37A | 0.15
167 | A28C C32U U49C U54C | 0.07
